Reference: publication PMC7819943, “Rice protein-binding microarrays: a tool to detect cis-acting elements near promoter regions in rice”
The list shows a part of the results.

target: T1, OsWOX13 (Oryza sativa, UniProt Q5QMM3 1-267); assay: protein-binding microarray (RPBM); PBS, 2% BSA, 51.3 ng/ul salmon testes DNA, 50 uM zinc acetate, 200 nM TF, 25 C, 1 h; high values mean tight binding; settings: protein: recombinant; tags: N-terminal polyhistidine and DsRed monomer fusion (pET32a); label: CyDye5-dUTP incorporated in the synthesized complementary strand; 3' TTTTT single-stranded linker to array surface; dsDNA, one strand shown
T1 sequence: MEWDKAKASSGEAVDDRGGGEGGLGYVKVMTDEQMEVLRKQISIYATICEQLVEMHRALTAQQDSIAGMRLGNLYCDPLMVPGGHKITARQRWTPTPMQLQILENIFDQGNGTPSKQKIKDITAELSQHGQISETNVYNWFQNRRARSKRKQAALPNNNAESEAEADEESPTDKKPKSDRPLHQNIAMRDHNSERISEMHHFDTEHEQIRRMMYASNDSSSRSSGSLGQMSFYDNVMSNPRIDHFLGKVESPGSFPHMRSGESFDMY
Outline: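 An Axon 4000B scanner gave the binding signal as per-feature fluorescence intensity in arbitrary units. This followed washing of a custom Agilent array that had been incubated for 1 h at 25 °C with 200 nM protein in PBS, 2% BSA, salmon testes DNA and 50 µM zinc acetate. The proteins were transcription factors fused at the N-terminus to polyhistidine and DsRed, expressed in E. coli BL21-CodonPlus and purified on Ni–NTA.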

Sequence | binding signal
TAGATTGCTATTTGTTGGAATATGATAGAGGTGGGGAAGGCGGAGTCACCTAGTGCAG | 7210 fluorescence intensity (a.u.)
TTAAACAACATTAATCAACCTAATAACATGTTTTAGTTGCCGGAGTCACCTAGTGCAG | 7890 fluorescence intensity (a.u.)
TCCCTCATTTGACAAATTATGGCAAACGTTTTGCAACTTCCGGAGTCACCTAGTGCAG | 4630 fluorescence intensity (a.u.)
ACGTGATACATCTTGTTCTAGATTTGTTTAATTTAAGCCACGGAGTCACCTAGTGCAG | 3240 fluorescence intensity (a.u.)
TAAACTTTTACTATCAATCATCTGAACCGTTTAATTTAAGCGGAGTCACCTAGTGCAG | 14200 fluorescence intensity (a.u.)
ACTAATTTCATAACTTGTCTGGAAACAGCGAGATGAATTTCGGAGTCACCTAGTGCAG | 5470 fluorescence intensity (a.u.)
TTTGATTTGGGAAAGATAATATATCTTGCTACTTTGTCTTCGGAGTCACCTAGTGCAG | 18200 fluorescence intensity (a.u.)
CAAACTTTGATAGGGACCAAATGCGGCTTTACCACCTCCACGGAGTCACCTAGTGCAG | 3560 fluorescence intensity (a.u.)
CCCTGTGTGATTTGAGATCAGTGTTTGTTTTCTTTGTATACGGAGTCACCTAGTGCAG | 11700 fluorescence intensity (a.u.)
GGTTGAGGTTGATTAGATGCATCATATGATGCTTTGTCGGCGGAGTCACCTAGTGCAG | 12600 fluorescence intensity (a.u.)
ATTTAAATTCAAATTTGAATCGAATATAATTCAAATTCAACGGAGTCACCTAGTGCAG | 3340 fluorescence intensity (a.u.)
ACATACTGAATTTTAACTTAATTGAAAGGGTATAGAGAACCGGAGTCACCTAGTGCAG | 32900 fluorescence intensity (a.u.)
CTAAACAGGCCTATGTTGTTCTCTCTTATGTGTAATTTGCCGGAGTCACCTAGTGCAG | 3880 fluorescence intensity (a.u.)
CTATAGATTGGCTATCGTACATGAATGTTAATATATTTCTCGGAGTCACCTAGTGCAG | 7920 fluorescence intensity (a.u.)
GTCTTGTGATCTTGATTGTGTAGAGGAAGAAATTACTATTCGGAGTCACCTAGTGCAG | 3800 fluorescence intensity (a.u.)
CACCAATTACATTGTCAAACAGCAGGGCACCACAAGCAATCGGAGTCACCTAGTGCAG | 11400 fluorescence intensity (a.u.)
GGAGCTAATAATTAATTAATAATGTACTAAAGGATTGCTCCGGAGTCACCTAGTGCAG | 22400 fluorescence intensity (a.u.)
TCAATTAGAAATTAAACCGTGAGTTTCCCGGAATCGATCCCGGAGTCACCTAGTGCAG | 4220 fluorescence intensity (a.u.)
GAAAATCTGTGGGAGGGGAGGGGAGGGGACGAGGGGACAGCGGAGTCACCTAGTGCAG | 5600 fluorescence intensity (a.u.)
CTTGGTTTATTTTGATTTGCTGACTATAACACTTGATTCTCGGAGTCACCTAGTGCAG | 4690 fluorescence intensity (a.u.)
ACATAATTAATCCTTATAATAATTTAGATGCATTTATAAACGGAGTCACCTAGTGCAG | 20200 fluorescence intensity (a.u.)

Sequence | binding signal
ATTGATTTGATAAAACTAATTTAGTACTATAAATATTACTCGGAGTCACCTAGTGCAG | 29400 fluorescence intensity (a.u.)
ATGAGCTAATTATATATGTTGATATTTGTTTCTATTATAACGGAGTCACCTAGTGCAG | 5240 fluorescence intensity (a.u.)
GAGTGAAATGTCAATCAACCATGCAAGCACCTGAAGAGTTCGGAGTCACCTAGTGCAG | 20200 fluorescence intensity (a.u.)
TTAATTAGCAATCGCCTATATAATCAGCTAGCGCAACAACCGGAGTCACCTAGTGCAG | 23000 fluorescence intensity (a.u.)
GAGGTAATTCCTCCTTTAATTTGTGTAAACAAATCTCAGCCGGAGTCACCTAGTGCAG | 14900 fluorescence intensity (a.u.)
ATTATGTTGGAAATTGATTAGTTGAAAAGAAACATCCAAACGGAGTCACCTAGTGCAG | 23900 fluorescence intensity (a.u.)
TTCTTTTAACCGGCAATTATGAAAGCTAGATAAGAAAATGCGGAGTCACCTAGTGCAG | 3350 fluorescence intensity (a.u.)
AATTGTAACTATAATTGTTTGAGTAGAATTGTAACTATGGCGGAGTCACCTAGTGCAG | 10100 fluorescence intensity (a.u.)
GCAGTCCATTAACACGTGATTAATTAAGTATTAGTTAATTCGGAGTCACCTAGTGCAG | 21800 fluorescence intensity (a.u.)
TTTACTAAGCAATCAAGATAACCTGATGTGCCTATCCATCCGGAGTCACCTAGTGCAG | 10200 fluorescence intensity (a.u.)
CGGTGTTGATTTGTGGAGCTAAGGTCTCGCAAAGTTCTACCGGAGTCACCTAGTGCAG | 11900 fluorescence intensity (a.u.)
TCAAACTGACTGGCACGCTCGCATCTCATCAATCGTTGGACGGAGTCACCTAGTGCAG | 25100 fluorescence intensity (a.u.)
ATGTTAAATTAGTCTTAGTGCTTCCACCCTAGTAAACAACCGGAGTCACCTAGTGCAG | 4320 fluorescence intensity (a.u.)
CAATCATTTACAGATTAGTTTACCGCATATCATTAGATGCCGGAGTCACCTAGTGCAG | 6560 fluorescence intensity (a.u.)
GTTTGACCAGATGCTTTCAATTTCCTATGACTCATTTATTCGGAGTCACCTAGTGCAG | 3280 fluorescence intensity (a.u.)
TGTACTGTGATAGACTGAGTTTACTAAACGAATGCATCATCGGAGTCACCTAGTGCAG | 13100 fluorescence intensity (a.u.)
CGCATTAATGAGTCATCCTAACATACATATAAATCTACACCGGAGTCACCTAGTGCAG | 5340 fluorescence intensity (a.u.)
GCGTTAATGACAATGACAGTTGGGCCCCATTGTATTGTTACGGAGTCACCTAGTGCAG | 18300 fluorescence intensity (a.u.)
CTAGTTGCAGTATAAATTGACTACGAGTAGGGAGGAAGAGCGGAGTCACCTAGTGCAG | 4300 fluorescence intensity (a.u.)
TTTAATTTCAAAGTAATGATATGCACTTGCTAGTGTAATGCGGAGTCACCTAGTGCAG | 13500 fluorescence intensity (a.u.)
GGTTAATTTGACATAAACAGCGTCAGAAATGTAGTTCATGCGGAGTCACCTAGTGCAG | 57900 fluorescence intensity (a.u.)
